Measured values reported in PubChem BioAssay AID1347043 (National Center for Advancing Translational Sciences (NCATS), 2019).
The campaign covered roughly 76,000 compounds. About 1,900 (2.5%) were called active. Inconclusive results, whose numbers are uncertain, are shown with a selection of clear calls. The call rests on the fitted dose curve; in most records, active means well fitted inhibition curve with a large enough effect; inconclusive means small, poorly fitted or top-dose-only effect; inactive means flat fitted curve, though single readings scatter. Potencies of inconclusive entries are doubtful fits and often do not repeat.
Further: nearly all actives have a fitted effect of over 65% in size.
Potency means the concentration at half of the fitted maximal effect; tags describe the fitted curve by direction and shape.

What follows are compounds tested against Luciferin 4-monooxygenase (Photinus pyralis) (UniProt P08659) (assay: Firefly luciferase inhibition profiling of diverse chemical library using quantitative high-throughput screening). Conditions: purified P. pyralis luciferase, luminescence, biochemical; series mostly up to 115 µM.
Chain of UniProt P08659 (P08659 whole entry, looked up): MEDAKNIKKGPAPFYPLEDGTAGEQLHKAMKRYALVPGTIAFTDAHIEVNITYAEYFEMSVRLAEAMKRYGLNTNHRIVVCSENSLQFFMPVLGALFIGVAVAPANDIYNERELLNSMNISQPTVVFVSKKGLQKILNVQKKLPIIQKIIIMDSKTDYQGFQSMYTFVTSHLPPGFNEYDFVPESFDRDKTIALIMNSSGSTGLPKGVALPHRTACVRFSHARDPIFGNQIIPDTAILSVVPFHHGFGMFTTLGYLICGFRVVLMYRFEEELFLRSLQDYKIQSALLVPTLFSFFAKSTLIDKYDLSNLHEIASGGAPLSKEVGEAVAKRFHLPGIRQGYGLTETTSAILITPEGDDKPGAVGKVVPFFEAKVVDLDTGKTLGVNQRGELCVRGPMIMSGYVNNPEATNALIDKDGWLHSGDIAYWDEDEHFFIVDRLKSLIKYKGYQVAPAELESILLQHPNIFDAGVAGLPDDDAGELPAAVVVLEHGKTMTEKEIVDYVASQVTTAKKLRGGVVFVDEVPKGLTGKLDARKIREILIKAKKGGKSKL
In short: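 FLuc 10nM, D-luciferin 10uM, ATP 10uM, Mg acetate 10mM, Tris acetate pH 7.5, Tween/BSA; cpd qHTS; enzyme added last; CCD luminescence.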
`CCCc1ccc2oc(C(=O)NCCc3nncn3CC)c(C)c2c1` was tested, and the Potency was active: 3.55 µM. With `CCc1csc(CNC(=O)c2ccc(OCC3(C)CCCNC3)nc2)n1` (stereo not given) the Potency was inconclusive: 50.1 µM [inhibitor, partial curve]. With `COc1cc2c(cc1-c1c(-c3ccccc3)ncn1CCCO)CCC2` the Potency was “inactive”. For `COc1ccccc1C(=O)NCCn1ccn2nc(-c3ccc(C)cc3C)cc2c1=O`, the Potency was active: 10 µM. With `COc1cccc(-c2cc3c(=O)n(CCNC(=O)c4cccc(Cl)c4)ccn3n2)c1` the Potency was inconclusive: 2.51 µM [inhibitor, full curve]. For `Cc1ccc(-c2noc([C@@H]3Cc4nc[nH]c4CN3Cc3ccccc3)n2)cc1`, the Potency was inconclusive: 100 µM [inhibitor, partial curve, poor fit]. With `NCCn1cc(C(=O)NCCc2noc(-c3ccccc3)n2)nn1` the Potency was “inactive”. In the case of `COCc1nc(C2CCCN(C(=O)Nc3cccc(F)c3C)C2)no1` (stereo not given), the Potency is reported as inconclusive: 39.8 µM [inhibitor, partial curve]. With `O=C(NCc1ccccc1)C1CCN(C(=O)c2ncn3c2COC(c2ccccc2)C3)CC1` (stereo not given) the Potency was active: 3.16 µM. With `CN1c2cc(C(=O)Nc3ccc(Cl)c(F)c3)ccc2C(=O)N2CCCCCC21` (stereo not given) the Potency was inconclusive: 8.91 µM [inhibitor, partial curve, poor fit]. In the case of `CCOC(=O)c1ccc(NC(=O)N2Cc3[nH]cnc3C[C@H]2c2nc(-c3ccc(OC(F)(F)F)cc3)no2)cc1`, the Potency is reported as inconclusive: 50.1 µM [inhibitor, partial curve]. With `CN(Cc1cccnc1)C1CN(C(=O)C2CCC2)C1` the Potency was inconclusive: 56.2 µM [inhibitor, partial curve, poor fit]. With `COc1ncc(-c2cccc(COc3ccc4c(cnn4CC[S+](C)(=O)[O-])c3)c2)cn1` the Potency was inconclusive: 28.2 µM [inhibitor, full curve]. With `Cc1cccc(OCC(=O)N2CCCC(c3noc(COc4ccccc4)n3)C2)c1` (stereo not given) the Potency was inconclusive: 35.5 µM [inhibitor, full curve]. For `NC(=O)CN1C(=O)[C@@H]2CN(C(=O)c3ccc4c(c3)OCO4)CCN2C1=O`, the Potency was “inactive”. For `CNc1ccc(-c2noc([C@@H]3CCCN3Cc3cccc(OC)c3)n2)cn1`, the Potency was inconclusive: 79.4 µM [inhibitor, partial curve, poor fit]. For `O=C(c1cc(F)ccc1F)N1CC(Oc2ccc(-c3nc(-c4ccccc4)no3)cc2)C1`, the Potency was inconclusive: 28.2 µM [inhibitor, partial curve]. For `COc1ccc(S(=O)(=O)NC[C@H]2Cn3c(-c4ccc(F)cc4)cnc3CO2)cc1`, the Potency was “inactive”. With `CCn1ccnc1C1CCN(c2nc3ccccc3s2)CC1` the Potency was active: 3.16 µM. With `CCC(C(=O)NCCn1ccn2nc(-c3ccc(F)cc3)cc2c1=O)c1ccccc1` (stereo not given) the Potency was inconclusive: 11.2 µM [inhibitor, full curve]. For `COc1cccc(-c2cc(C3CCN(C(=O)Nc4ccc(OC)c(OC)c4)CC3)[nH]n2)c1`, the Potency was inconclusive: 89.1 µM [inhibitor, partial curve, poor fit]. `CN1C(=O)CO[C@H](c2ccc(NC(=O)c3ccc(C(F)(F)F)cc3)cc2)[C@H]1CO` was tested, and the Potency was inconclusive: 44.7 µM [inhibitor, full curve]. In the case of `O=C(c1cc2n(n1)CCCN(Cc1ccccc1)C2)N1CC(n2cccn2)C1`, the Potency is reported as “inactive”. `COCCn1c(CO)nnc1C1CC(NC(=O)c2ccc(F)cc2F)C1` (stereo not given) was tested, and the Potency was “inactive”. `Cn1ccc(NC(=O)c2ccc3c(c2)NC(C)(CCCCc2ccccc2)CO3)n1` (stereo not given) was tested, and the Potency was “inactive”. `Cc1nc2scc(CC(=O)NCC(C)C)n2c(=O)c1-c1cc(C)n(-c2ccc(C(C)C)cc2)n1` was tested, and the Potency was inconclusive: 50.1 µM [inhibitor, partial curve]. For `O=C(Cn1nc2c(cc1=O)CCCCC2)NCc1ccccc1`, the Potency was inconclusive: 50.1 µM [inhibitor, partial curve]. In the case of `O=C1CC2(CCN(Cc3ccsc3)CC2)Oc2ccccc2N1`, the Potency is reported as inconclusive: 112 µM [inhibitor, partial curve, poor fit]. In the case of `COc1ccccc1CNC(=O)c1c(C)oc2ccn(Cc3cccc(F)c3)c(=O)c12`, the Potency is reported as inconclusive: 50.1 µM [inhibitor, partial curve, poor fit]. For `Cn1cnc2ccc(-c3cccc(O)c3)nc2c1=O`, the Potency was inconclusive: 100 µM [inhibitor, partial curve]. In the case of `CCc1cccc(NC(=O)c2ccc3c(c2)N(C)C2CCCCCN2C3=O)c1` (stereo not given), the Potency is reported as inconclusive: 14.1 µM [inhibitor, partial curve, poor fit]. In the case of `Fc1ccccc1CNC[C@H]1Cn2cc(-c3ccccc3)nc2CO1`, the Potency is reported as active: 63.1 µM. `O=C(Nc1cccc(F)c1)N1Cc2[nH]cnc2C[C@H]1c1nc(-c2ccc(C(F)(F)F)cc2)no1` was tested, and the Potency was inconclusive: 44.7 µM [inhibitor, partial curve]. In the case of `Cn1nc(C(=O)NC2CCCN(c3cc(-c4ccc(F)cc4)[nH]n3)C2)c2ccccc21` (stereo not given), the Potency is reported as inconclusive: 44.7 µM [inhibitor, partial curve]. For `CC1Oc2ccc(NC(=O)c3ccccc3F)cc2CN(CCOc2ccccc2)C1=O` (stereo not given), the Potency was “inactive”. For `CCOc1cccc(-c2nc(C(=O)Nc3ccc(OC)cc3)cs2)c1`, the Potency was inconclusive: 20 µM [inhibitor, full curve]. With `COc1cccc(NC(=O)Cn2c(-c3cccc(Cl)c3)nc(C)c(CCO)c2=O)c1` the Potency was “inactive”. `c1cncc(CN2CCNc3cc(-c4cn[nH]c4)ncc3C2)c1` was tested, and the Potency was inconclusive: 126 µM [inhibitor, single point]. `O=c1c2nc(-c3cccc(O)c3)ccc2ncn1C1CC1` was tested, and the Potency was inconclusive: 100 µM [inhibitor, partial curve]. In the case of `COc1ccc(-c2noc(Nc3cc(C)cc(C)c3)n2)cc1`, the Potency is reported as inconclusive: 31.6 µM [inhibitor, partial curve]. With `CN(Cc1ccc(F)cc1)C(=O)Nc1ccc(Cl)cc1` the Potency was inconclusive: 89.1 µM [inhibitor, partial curve]. In the case of `O=C(NCC1CCOCC1)Nc1cc(F)c(F)c(F)c1`, the Potency is reported as “inactive”. `O=C(NCc1ccc(-c2cccc(Cl)c2)o1)[C@H]1CCC[C@@H](O)C1` was tested, and the Potency was inconclusive: 39.8 µM [inhibitor, partial curve]. In the case of `COc1cccc(Nc2nccc3c(=O)cc(-c4ccccn4)oc23)c1`, the Potency is reported as inconclusive: 63.1 µM [inhibitor, full curve]. For `CN(CCc1ccccn1)[C@H]1[C@@H]2OC[C@@H](O2)[C@@H](NC(=O)Nc2cccc(C(F)(F)F)c2)[C@@H]1O`, the Potency was inconclusive: 44.7 µM [inhibitor, partial curve]. With `CCCNc1ncc(CN2CCC(Cc3nn(C)c(=O)n3CC)CC2)cn1` the Potency was “inactive”. `COc1ccccc1-c1ccc2ncc(Nc3ccc(CCO)cc3)n2n1` was tested, and the Potency was inconclusive: 70.8 µM [inhibitor, partial curve]. In the case of `O=C(O)CCC1CCN(C(=O)c2ccccc2F)CC1`, the Potency is reported as “inactive”. `Cc1cc(C)c(NC(=O)Cn2c(=O)c(-c3noc(C)n3)c3n(c2=O)CCCC3)c(C)c1` was tested, and the Potency was “inactive”. With `Cc1ccc(-c2noc([C@@H]3CCCN3C(=O)c3ccc(C(C)C)cc3)n2)cc1` the Potency was inconclusive: 39.8 µM [inhibitor, partial curve, poor fit]. With `Cc1ccc(C2Cn3nnc(C(=O)N4CCC(C(=O)Nc5ccc(Cl)cc5)CC4)c3CO2)cc1` (stereo not given) the Potency was active: 15.8 µM. `CC(C)Cc1cn(CC2CCCN(C(=O)c3n[nH]c4c3CCCC4)C2)nn1` (stereo not given) was tested, and the Potency was “inactive”. In the case of `CN(Cc1cccnc1)c1ccc(-c2nc(COc3ccccc3)no2)cn1`, the Potency is reported as active: 7.94 µM. In the case of `Cn1ncc(N2CCCC(CC(=O)N3CCCCCC3)C2)cc1=O` (stereo not given), the Potency is reported as “inactive”. In the case of `CCCCNC(=O)c1cccc2c1CCN2C(=O)Nc1ccccc1`, the Potency is reported as active: 3.55 µM. `c1ccc(CN2CC[C@H](c3nc4ncccc4[nH]3)C2)cc1` was tested, and the Potency was inconclusive: 100 µM [inhibitor, partial curve]. In the case of `CCOc1ccc(-c2cc3c(=O)n(CCNC(=O)c4ccc(OC)c(F)c4)ccn3n2)cc1`, the Potency is reported as inconclusive: 0.316 µM [inhibitor, full curve]. In the case of `COc1ccc(-c2cc(N3CCCC(NC(=O)c4ccc(C)s4)C3)n[nH]2)cc1` (stereo not given), the Potency is reported as active: 28.2 µM. In the case of `Cc1oc2c(c1C(=O)NCCCN1CCCC1=O)CN(Cc1cccc(F)c1)CC2`, the Potency is reported as inconclusive: 44.7 µM [inhibitor, partial curve]. With `O=C(Nc1ccc2c(c1)OCCO2)N1CCCC1c1nc(CCOCC2CCCC2)no1` (stereo not given) the Potency was inconclusive: 39.8 µM [inhibitor, partial curve]. `COc1cc(CN2CC[C@H](c3nc4ccccc4o3)C2)cc(OC)c1OC` was tested, and the Potency was “inactive”. `CCCS(=O)(=O)N[C@H]1C[C@@H](c2nc(-c3ccc(OC)cc3)no2)N(C)C1` was tested, and the Potency was inconclusive: 63.1 µM [inhibitor, partial curve]. In the case of `CN(Cc1ccc(F)cc1)Cc1cccnc1`, the Potency is reported as “inactive”. With `CC(C)(C)n1ccc(C(=O)N2CCN(c3cccc(Cl)c3)C(=O)C2)c1` the Potency was inconclusive: 50.1 µM [inhibitor, partial curve]. With `COc1ccc(NC(=O)c2cc(-c3ccc[nH]3)n[nH]2)cc1F` the Potency was active: 15.8 µM. In the case of `O=C(NCCCn1ccnc1)c1ccc2nc(-c3ccc(F)cc3)cn2c1`, the Potency is reported as inconclusive: 44.7 µM [inhibitor, partial curve]. With `CCn1nc(-c2ccc3c(c2)OCCO3)nc1N(C)C` the Potency was active: 39.8 µM. `Cc1ccc(C(=O)N2CCCC3(CCNCC3)CC2)c2ccccc12` was tested, and the Potency was “inactive”. In the case of `O=C1CCN(C(=O)c2ccccc2)CCCC(C(=O)N2CCN(Cc3ccccc3F)CC2)CCN1` (stereo not given), the Potency is reported as “inactive”. In the case of `CN(c1ccccc1)c1ccc2ncn(C3CC3)c(=O)c2n1`, the Potency is reported as active: 1.26 µM.
